Laboratory results as given in IntAct's records for PubMed 27332895.

B1: Inner centromere protein (Homo sapiens), Q9NQS7 (parent)
chain: MGTTAPGPIHLLELCDQKLMEFLCNMDNKDLVWLEEIQEEAERMFTREFSKEPELMPKTPSQKNRRKKRRISYVQDENRDPIRRRLSRRKSRSSQLSSRRLRSKDSVEKLATVVGENGSVLRRVTRAAAAAAAATMALAAPSSPTPESPTMLTKKPEDNHTQCQLVPVVEIGISERQNAEQHVTQLMSTEPLPRTLSPTPASATAPTSQGIPTSDEESTPKKSKARILESITVSSLMATPQDPKGQGVGTGRSASKLRIAQVSPGPRDSPAFPDSPWRERVLAPILPDNFSTPTGSRTDSQSVRHSPIAPSSPSPQVLAQKYSLVAKQESVVRRASRRLAKKTAEEPAASGRIICHSYLERLLNVEVPQKVGSEQKEPPEEAEPVAAAEPEVPENNGNNSWPHNDTEIANSTPNPKPAASSPETPSAGQQEAKTDQADGPREPPQSARRKRSYKQAVSELDEEQHLEDEELQPPRSKTPSSPCPASKVVRPLRTFLHTVQRNQMLMTPTSAPRSVMKSFIKRNTPLRMDPKCSFVEKERQRLENLRRKEEAEQLRRQKVEEDKRRRLEEVKLKREERLRKVLQARERVEQMKEEKKKQIEQKFAQIDEKTEKAKEERLAEEKAKKKAAAKKMEEVEARRKQEEEARRLRWLQQEEEERRHQELLQKKKEEEQERLRKAAEAKRLAEQREQERREQERREQERREQERREQERREQERQLAEQERRREQERLQAERELQEREKALRLQKEQLQRELEEKKKKEEQQRLAERQLQEEQEKKAKEAAGASKALNVTVDVQSPACTSYQMTPQGHRAPPKINPDNYGMDLNSDDSTDDEAHPRKPIPTWARGTPLSQAIIHQYYHPPNLLELFGTILPLDLEDIFKKSKPRYHKRTSSAVWNSPPLQGARVPSSLAYSLKKH
B2: Inner centromere protein (Homo sapiens), Q9NQS7 (parent)
chain: B1 chain
partner: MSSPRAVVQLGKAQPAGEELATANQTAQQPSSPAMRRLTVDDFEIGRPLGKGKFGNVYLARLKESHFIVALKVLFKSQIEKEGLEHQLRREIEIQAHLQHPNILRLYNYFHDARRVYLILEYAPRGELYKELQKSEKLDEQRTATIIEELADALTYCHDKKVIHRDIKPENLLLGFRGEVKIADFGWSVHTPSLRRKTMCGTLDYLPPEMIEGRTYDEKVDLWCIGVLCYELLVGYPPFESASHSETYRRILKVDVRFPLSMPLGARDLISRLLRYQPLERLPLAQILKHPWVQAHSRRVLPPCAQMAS

What was measured:
[1] = variants of: B1; settings: with aurkb_human AURKB
[2] = variants of: B2; settings: with aurkc_human AURKC
[3] = variants of: B2; settings: with aurkc_human AURKC; remark: listed apart in the source
[4] = variants of: B2; settings: with aurkc_human AURKC; remark: listed apart in the source
[5] = variants of: B2; settings: with aurkc_human AURKC; remark: listed apart in the source

effect of a mutation on the interaction [1]	effect of a mutation on the interaction [2]	effect of a mutation on the interaction [3]	effect of a mutation on the interaction [4]	effect of a mutation on the interaction [5]	Variant
decreasing interaction strength					T892A;S893A;S894A
	disrupting interaction	decreasing interaction	with no effect	decreasing interaction strength	T892A;S893A;S894A
